In the supplement of paper PMC12217912:
This is one part of the list. The full chains were built here from the parent and the listed change. Inactive controls read about 0.05.

B1: TEV protease; numbered along this chain (parent)
chain: MGESLFKGPRDYNPISSSICHLTNESDGHTTSLYGIGFGPFIITNKHLFRRNNGTLVVQSLHGVFKVKDTTTLQQHLVDGRDMIIIRMPKDFPPFPQKLKFREPQREERICLVTTNFQTKSMSSMVSDTSCTFPSGDGIFWKHWIQTKDGQCGSPLVSTRDGFIVGIHSASNFTNTNNYFTSVPKNFMELLTNQEAQQWVSGWRLNADSVLWGGHKVFMVKPEEPFQPVKEATQL

Variants of: B1
Assay: raw area under fraction-flipped curve 0-4 h after induction (AUC4h, not background-subtracted), DNA-recorder readout of cleavage of the substrate (dimensionless); higher = more cleavage of the substrate by the protease variant
Conditions: temperature: 34 °C; time window: 0-4 h after rhamnose induction
Procedure: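 In vivo DNA recorder in E. coli TOP10(DE3) ΔrhaA at 34 °C. Each TEVp single-site mutant (parent TEVp 0) is paired with a single-site variant of the 7-mer TEVs (canonical ENLYFQ|S). The substrate sits between flexible linkers in a Bxb1-sfGFP-TEVs-SsrA fusion, so cleavage stabilises Bxb1 and speeds flipping of a recombination array, read by NGS. The value is the raw area under the fraction-flipped curve over 0-4 h after rhamnose induction (AUC4h), with ≥20 reads per time point. It is not background-subtracted; inactive controls average about 0.047.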
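Note: Bxb1 expression induced with 0.2% (w/v) L-rhamnose at OD600 near 0.5, cultures sampled hourly, flipped fraction per protease–substrate barcode pair counted by paired-end Illumina sequencing.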

Variant	area with substrate ENLAFQS	area with substrate ENLDFQS	area with substrate ENLEFQS	area with substrate ENLFFQS	area with substrate ENLHFQS	area with substrate ENLIFQS	area with substrate ENLKFQS	area with substrate ENLMFQS	area with substrate ENLNFQS	area with substrate ENLPFQS	area with substrate ENLQFQS	area with substrate ENLRFQS	area with substrate ENLSFQS	area with substrate ENLVFQS	area with substrate ENLTFQS	area with substrate ENLCFQS	area with substrate ENLWFQS	area with substrate ENLGFQS	area with substrate ENLLFQS
V64C	0.0589	0.0627	0.071	0.0925	0.0745	0.0881	0.0774	0.0829	0.0721	0.0658	0.0728	0.0785	0.07	0.0925					
V64R	0.0748	0.0623			0.0689	0.0967	0.0463		0.0581	0.0259			0.0666		0.0999				
V64L	0.0633			0.0836	0.0811				0.0662	0.0759			0.0692	0.0857		0.0609	0.084		
V64P	0.0561	0.0655		0.0704			0.0765	0.0872	0.0478	0.0629	0.057	0.0753	0.0626	0.0846			0.0628	0.0668	0.0764
V64W	0.0751		0.0608	0.0861	0.0851				0.0641		0.0407	0.0608			0.0667			0.0816	0.0603
T72H	0.0383	0.0642	0.0647	0.0728	0.0632		0.111	0.094	0.0536	0.0572		0.0771	0.0462			0.0636	0.0315		0.0665
T72V	0.0592	0.0597	0.0811	0.0953	0.0814	0.0653	0.0782	0.0777	0.0704	0.0591	0.0569	0.0742	0.0543				0.0953	0.0667	0.0605
T72G	0.0603	0.0509	0.0642	0.0752			0.0716					0.077	0.0675			0.0732			
T72R	0.0621	0.0847	0.0675	0.109	0.0743	0.0938		0.0799	0.0792	0.0535		0.0647	0.0601	0.0761	0.0773			0.0638	0.0617
T72A	0.0725	0.0331	0.0639	0.0787	0.0564				0.0634		0.0793	0.0579							
T72S	0.0615			0.0632			0.0424		0.0701				0.068	0.0924	0.0644	0.0605			0.0719
T72C	0.0663	0.0754		0.0974	0.0723				0.0647		0.0525	0.0527	0.0723		0.0905	0.0665	0.0653		
R106D	0.0571	0.0605	0.0492	0.0886	0.0536	0.0967	0.0745		0.0574	0.0693	0.0715	0.0795	0.0721		0.106	0.0715		0.0663	0.0491
M88Y	0.0282	0.045		0.0923	0.0639		0.079	0.0478	0.0204							0.063	0.0517	0.0405	0.0198
M88G	0.0348	0.0464	0.0354	0.0545	0.0509	0.0752		0.052	0.0427	0.0463	0.0441	0.051							0.0408
M88D	0.0431	0.0515					0.0551		0.0498	0.0398	0.0161					0.024			
M88Q	0.0202	0.0549	0.0661	0.0942		0.0848	0.0504	0.0756		0.0442							0.0541		
L56Y	0.0642	0.0608	0.0486	0.0558		0.0585	0.0558	0.0666	0.0663				0.0578				0.0062	0.0731	
L112S	0.0588	0.072	0.0201	0.0674	0.0545		0.0626		0.035	0.0666	0.0322	0.0647	0.0752	0.106		0.0604	0.0442	0.0577	
L112H	0.0574	0.0682	0.0493	0.0658	0.0643		0.0652	0.0685	0.0543	0.074	0.0578	0.0673	0.0535	0.0748		0.0575	0.0628		0.0559
L112Q	0.0704	0.071	0.0821	0.064		0.0682	0.0807		0.0791		0.065	0.0705		0.0649		0.0704	0.0598		
L112C	0.0624	0.0532	0.0688	0.0689	0.0772	0.0874	0.0803			0.0656	0.0615	0.0772	0.0909	0.0734		0.0612	0.0709		
L112N	0.0759	0.0719	0.0496	0.0601	0.0665	0.0684	0.0776	0.0564	0.0659	0.0541	0.0686	0.0619	0.0502	0.061			0.0572	0.0647	0.0502
L112Y	0.0512	0.067	0.0648	0.0691	0.0568	0.0586	0.0669	0.0529	0.032	0.066	0.067	0.0648		0.0564		0.0625	0.0591	0.0574	
Q105F	0.0564	0.0595	0.0647	0.0819	0.0658	0.0855	0.0698		0.0707	0.0662	0.0543	0.0855	0.0609		0.0698		0.0638		0.0638
P93S	0.0573	0.0548			0.0232		0.0765		0.0529	0.065			0.0647				0.0363		
Q75P	0.0561	0.0767	0.0547	0.0674	0.0496	0.0691	0.0644	0.0744	0.0659		0.0667	0.0518	0.0589	0.0695	0.0682	0.0318	0.0526	0.0758	
D128K	0.0737			0.0871	0.0662	0.0742	0.0692		0.0565					0.0771		0.0692	0.0763		0.0719
